Assay results taken from PubChem BioAssay AID588591 (National Center for Advancing Translational Sciences (NCATS), 2011).
“And” between values parts separate entries of the source, which are not always exact repeats. Equal values may be shown once. The whole screen tested about 390,000 compounds, of which about 4,700 (1.2%) were called active. The inconclusive results got no clear call from the source; some entries with a clear call stand among them for comparison. The call rests on the fitted dose curve; in most records, active means well fitted inhibition curve with a large enough effect; inconclusive means small, poorly fitted or top-dose-only effect, or another doubt; inactive means no such curve, though single readings can be large or run the other way. Where the call is inconclusive, the potency comes from a doubtful curve fit. A structure can be active in one record and inactive in another.

target: DNA polymerase eta (Homo sapiens) (UniProt Q9Y253); assay: qHTS for Inhibitors of Polymerase Eta; details: recombinant Pol eta, fluorescent DNA replication assay; series mostly up to 114 µM; activity change, negative = inhibition: at the top concentration
Sequence of UniProt Q9Y253 (Q9Y253 whole entry, looked up): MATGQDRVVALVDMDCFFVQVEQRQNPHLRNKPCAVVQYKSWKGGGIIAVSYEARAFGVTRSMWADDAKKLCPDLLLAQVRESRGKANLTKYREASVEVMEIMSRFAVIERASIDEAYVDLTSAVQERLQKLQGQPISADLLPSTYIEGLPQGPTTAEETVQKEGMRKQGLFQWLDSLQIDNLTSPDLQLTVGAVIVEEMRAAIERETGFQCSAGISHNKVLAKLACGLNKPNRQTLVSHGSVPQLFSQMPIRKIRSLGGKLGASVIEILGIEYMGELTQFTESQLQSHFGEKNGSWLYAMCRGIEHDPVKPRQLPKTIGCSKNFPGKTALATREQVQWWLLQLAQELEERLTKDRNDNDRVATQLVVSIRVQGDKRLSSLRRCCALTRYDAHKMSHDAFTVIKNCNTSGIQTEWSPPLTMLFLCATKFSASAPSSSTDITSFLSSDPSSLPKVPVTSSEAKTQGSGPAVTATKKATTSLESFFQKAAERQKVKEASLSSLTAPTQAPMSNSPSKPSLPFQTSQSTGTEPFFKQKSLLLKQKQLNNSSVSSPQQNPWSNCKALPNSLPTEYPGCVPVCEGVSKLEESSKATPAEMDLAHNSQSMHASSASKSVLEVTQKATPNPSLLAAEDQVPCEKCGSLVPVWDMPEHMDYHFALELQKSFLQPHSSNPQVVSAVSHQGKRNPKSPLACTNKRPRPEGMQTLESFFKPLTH
Method in brief: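 Pol eta (10 nM) was preincubated with compounds for 15 min at room temperature, after which fluorescent replication substrate (50 nM final) was added to start the reaction. Fluorescence was read kinetically at 0 and 10 min.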
On the % scale 0 is the no-effect control and ±100 the full control effect; potency means the concentration at half of the fitted maximal effect; tags describe the fitted curve by direction and shape.

| SMILES | Potency | activity change, negative = inhibition |
| --- | --- | --- |
| CC(C)NC(=S)NN=C1CCC(c2ccccc2)CC1 (stereo not drawn) | inconclusive: 79.4 µM [inhibitor, partial curve, poor fit] | – |
| Cc1oc(-c2ccccc2)nc1C(=O)OCC(=O)NC(=O)NCC(C)C | inconclusive: 25.1 µM [inhibitor, partial curve, poor fit] | – |
| Cc1ccnc(NC(=S)NC(=O)/C=C/c2ccco2)c1 | inconclusive: 31.6 µM [inhibitor, partial curve, poor fit] | – |
| O=S(=O)(O)c1ccc(O)c2cc(Nc3ccccc3)ccc12 | active: 0.794 µM | – |
| N#CC(C(=O)Nc1ccc(Cl)cc1)=C1Nc2ccccc2N1 | inconclusive: 25.1 µM [inhibitor, partial curve, poor fit] | – |
| Cc1ccc(/C=C/C(=O)Nc2nnc(C)s2)o1 | inconclusive: 28.2 µM [inhibitor, single point] | – |
| O=C(NCCCCc1ccccc1)c1ccccc1Cl | inconclusive: 89.1 µM [inhibitor, partial curve, poor fit] | – |
| O=C1NC(=O)C(c2ccccc2[N+](=O)[O-])=C1Nc1ccc(O)c(Cl)c1 | inconclusive: 20 µM [inhibitor, partial curve] | – |
| Cc1c(C)c2ccc(OCC(=O)NC(Cc3c[nH]c4ccc(O)cc34)C(=O)O)c(C)c2oc1=O (stereo not drawn) | inconclusive: 79.4 µM [inhibitor, partial curve] | – |
| COc1cccc(NC(=O)CSc2nc(C3CC3)nc3ccccc23)c1 | active: 39.8 µM | – |
| COc1ccc(CN2C(=O)c3cccnc3C2Nc2cc(Cl)ccc2OC)cc1 (stereo not drawn) | – | inactive: -4.31% |
| O=C(/C=C/c1ccco1)Nc1scc(-c2ccccc2)c1C(=O)O | active: 20 µM | – |
| Cc1ccc(NC(=O)C2(NC(=O)c3ccccn3)CCCCC2)cc1Br | inconclusive: 79.4 µM [inhibitor, partial curve, poor fit] | – |
| COc1ccc2c(c1OC)C(=O)OC2Nc1nc(-c2cc3cc([N+](=O)[O-])ccc3oc2=O)cs1 (stereo not drawn) | inconclusive: 15.8 µM [inhibitor, full curve, poor fit] | – |
| CC(C)N(Cc1ccccc1)C(=O)COC(=O)c1ccc2ncsc2c1 | inconclusive: 39.8 µM [inhibitor, partial curve, poor fit] | – |
| CCc1ccc(Nc2nnc(SC3CCOC3=O)s2)cc1 (stereo not drawn) | inconclusive: 22.4 µM [inhibitor, partial curve, poor fit] | – |
| CC(=O)NNC(=O)CCn1nnc2ccccc21 | inconclusive: 100 µM [inhibitor, partial curve, poor fit] | – |
| O=C1c2ccccc2C(=O)C12OC2c1cccc2ccccc12 (stereo not drawn) | active: 20 µM | – |
| Cc1ccc(-c2nnc(SCC(=O)NCCC(C)C)nc2-c2ccc(C)cc2)cc1 | – | inactive: -12.2% |
| COC(=O)c1ccn(CC(=O)NC2CCCCC2)n1 | inconclusive: 39.8 µM [inhibitor, partial curve, poor fit] | – |
| COC(=O)c1ccc(COc2ccccc2/C=N/Nc2cccc(C(=O)O)c2)cc1 | active: 79.4 µM | – |
| COc1ccc(Cl)cc1NC(=O)CSc1nnc(C)n2c1cc1occc12 | – | inactive: -13.9% |

| SMILES | Potency | activity change, negative = inhibition |
| --- | --- | --- |
| N#C/C(=C\c1ccc(O)c(O)c1)C(=O)Nc1ccccc1 | inactive and active: 12.6 µM | – |
| COc1ccccc1C(=O)Nc1ccnn1C1CCN(Cc2cnc(N(C)C)s2)CC1 | – | inactive: -9.02% |
| CCOC(=O)C(C)n1cnc2sc3c(c2c1=O)CCC3 (stereo not drawn) | inconclusive: 28.2 µM [inhibitor, partial curve, poor fit] | – |
| Cc1ccc(NC(=O)c2sc3nc(CCl)[nH]c(=O)c3c2C)c(C)c1 | – | inactive: -13.6% |
| COc1cc(-c2nc3ccccn3c2/N=C/c2cc(OC)c(O)cc2Cl)ccc1O | inconclusive: 56.2 µM [inhibitor, partial curve, poor fit] | – |
| CN1Cc2sc(N)c(C#N)c2CC1(C)C | inconclusive: 35.5 µM [inhibitor, partial curve, poor fit] | – |
| O=c1c(O[C@H]2O[C@@H](CO)[C@H](O)[C@@H](O)[C@@H]2O)c(-c2ccc(O)cc2)oc2cc(O)cc(O)c12 | inconclusive: 35.5 µM [inhibitor, partial curve, poor fit] | – |
| c1ccc(-c2nnc3sc(-c4csc5c4CCCC5)nn23)cc1 | inconclusive: 12.6 µM [inhibitor, full curve, poor fit] | – |
| CC(=O)Nc1ccc(S(=O)(=O)N2CCSC2c2ccc(Cl)cc2)cc1 (stereo not drawn) | inconclusive: 56.2 µM [inhibitor, partial curve, poor fit] | – |
| CCCCCCOc1ccc(-c2nc3ccc(Br)cc3c(=O)o2)cc1 | – | inactive: -17.9% |
| Cc1ccc(-c2nc3ccccc3s2)cc1NC(=O)c1cc(-n2cnnc2)ccc1Cl | inconclusive: 35.5 µM [inhibitor, partial curve] | – |
| O=C1CN(C(=O)C2CCCCC2)C(c2ccccc2)c2cc(F)ccc2N1 (stereo not drawn) | – | inactive: -6.31% |
| C=CCn1c(SCC(=O)NCCOC)nc2scc(-c3ccco3)c2c1=O | active: 17.8 µM | – |
| O=C(Nc1ccc(S(=O)(=O)Nc2ncccn2)cc1)C1=NN(c2ccccc2)C(=O)CC1 | active: 35.5 µM | – |
| CCOC(=O)C1(Cc2ccccc2C(F)(F)F)CCN(Cc2ccon2)CC1 | inconclusive: 100 µM [inhibitor, partial curve, poor fit] | – |
| COc1ccc2[nH]c3c(NCc4ccco4)ncnc3c2c1 | inconclusive: 44.7 µM [inhibitor, partial curve, poor fit] | – |
| Cc1cc(C)cc(OCC(=O)Nc2ccccc2C(=O)NCc2ccco2)c1 | inconclusive: 31.6 µM [inhibitor, single point] | – |
| Cc1ccc(-c2cc(C(=O)Oc3ccccc3)c3cccc(C)c3n2)cc1 | active: 50.1 µM | – |
| COc1ccc(NC(=O)c2sc3nc[nH]c(=O)c3c2C)cc1 | – | inactive: -4.88% |
| CC1(C)Cc2c(sc(NC(=O)COc3cccc4ccccc34)c2C#N)C(C)(C)N1 | inconclusive: 25.1 µM [inhibitor, partial curve, poor fit] | – |
| Cc1ccc(-n2c(O)c(/C=N/NC(=O)C3COc4ccccc4O3)c3ccccc3c2=O)cc1 (stereo not drawn) | inconclusive: 56.2 µM [inhibitor, partial curve] | – |
